The RNAGym collection of RNA variant scans (doi:10.1073/pnas.2313332121)
This sample is rich in variants without activity.

B1: TPR 5TU (parent)
chain: GGAUCUUCUCGAUCUAACAAAAAAGACAAAUCUGCCACAAAGCUUGAGAGCAUCUUCGGAUGCAGAGGCGGCAGCCUUCGGUGGCGCGAUAGCGCCAACGUUCUCAACUAUGACACGCAAAACGCGUGCUCCGUUGAAUGGAGUUUAUCAUG

Variants of: B1
Assay: polymerase ribozyme fitness, log enrichment relative to wild type (log ratio); higher = more active; in vitro selection for triplet polymerase activity
Outline: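 Mutant libraries were PCR-built and transcribed for each subunit of a heterodimeric triplet polymerase ribozyme and selected for one round in triplicate at −7 °C, frozen, before gel excision of extended constructs and streptavidin-bead capture. Input and output libraries were Illumina-sequenced, keeping genotypes with ≥10 input reads and ≥1 read per output. Fitness is a logarithmic ratio of genotype to wild-type enrichment, in base 2, using inverse-variance-weighted replicate averages.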

Variant	polymerase ribozyme fitness (log ratio)
G42A G58A A66C A91U G143C U145G	≤ -4.2
G42A G58A C93U A121C U130A G133C A142C A147G A150U	≤ -4.2
G42A G58C C79G C87U A115U	≤ -4.2
G42A G58U A64G G68U G92C C95U C129U U134C	≤ -4.2
G42A G59U U145G U151A	≤ -4.2
G42A G74A G86A U102G G143C	≤ -4.2
G42A G81C A106G G126C C131G	≤ -4.2
G42A G83A	≤ -4.2
G42A G86A C103U A119C	≤ -4.2
G42A G92A C96U A98G U151G	≤ -4.2
G42A G92C U104C	≤ -4.2
G42A G136A A150U	≤ -4.2
G42A U44A C54G G58C C75A C93G	≤ -4.2
G42A U45A C95U A106C C108A C149U	≤ -4.2
G42A U45A G84A U102G	≤ -4.2
G42A U53A C96U U130C	≤ -4.2
G42A U53G C87A	≤ -4.2
G42A U55A C95U U111G A147U	≤ -4.2
G42A U55A C96A	-4.06
G42A U55A G62C G71A C85A	≤ -4.2
G42A U77G G83C A110G U145A	≤ -4.2

Variant	polymerase ribozyme fitness (log ratio)
G42A U109C	≤ -4.2
G42C A47C C57U G81C C95A	≤ -4.2
G42C A47G C57A C75G C125G	≤ -4.2
G42C A60C G68A C108U C125A	≤ -4.2
G42C A66G A89U C96U C125A	≤ -4.2
G42C A73C G84U C129A	≤ -4.2
G42C C43U A91U C93G	≤ -4.2
G42C C51A U61A G80C A91G	≤ -4.2
G42C C51U C87A	≤ -4.2
G42C C54G A91U G124A C131G	≤ -4.2
G42C C54U A91U C96A G143A	≤ -4.2
G42C C54U G94A G143C	≤ -4.2
G42C C63U G92U C95U A122C	≤ -4.2
G42C C75A A91U	≤ -4.2
G42C C76U C85U A89G U104C	≤ -4.2
G42C C79A C116A G124A G133C	≤ -4.2
G42C C85G G92A G94A U101A A115U A142C U148G	≤ -4.2
G42C C85G U127A	≤ -4.2
G42C C85U	-3.97
G42C C87A G88A G140U	≤ -4.2
G42C C95A	≤ -4.2

Variant	polymerase ribozyme fitness (log ratio)
G42C C108U	≤ -4.2
G42C G46U G48C G84A	≤ -4.2
G42C G48A C103A U144C	≤ -4.2
G42C G50A A89U G92A A138U G141C	≤ -4.2
G42C G50U G74A C95G C123U	≤ -4.2
G42C G50U G88C A107U A113C G141C A147G	≤ -4.2
G42C G58C G59A A60U G62A G70A C85U C95A A110G U134C	≤ -4.2
G42C G62A C79A G83A U146C	≤ -4.2
G42C G68C C69G C96U	≤ -4.2
G42C G70U C85A	≤ -4.2
G42C G71U C118G G136A	≤ -4.2
G42C G81C A120G	≤ -4.2
G42C G88U C95A	≤ -4.2
G42C U44A A49C G126C C131A A142G A147U	≤ -4.2
G42C U44A A49U A60C C79U C96U C125A A142G	≤ -4.2
G42C U44A C54G A91U C99U G143C U145C	≤ -4.2
G42C U44G G88A A97C	≤ -4.2
G42C U55A U61A C75A A106G G133C	≤ -4.2
G42C U55A U61A C76G G124C A147C	≤ -4.2
G42C U61A U90G C132A	≤ -4.2
G42U A91U C103G C116G	≤ -4.2

Variant	polymerase ribozyme fitness (log ratio)
G42U A98U U102G A120U C132G U135A A147C	≤ -4.2
G42U A106C	-4.17
G42U C43U C57U U61A G84A C105A G143A	≤ -4.2
G42U C54G C79U G83U U134A A138U	≤ -4.2
G42U C57U G59C U61A C85A U111C G136C U148G	≤ -4.2
G42U C57U U82A	≤ -4.2
G42U C76A C85A A97U	≤ -4.2
G42U C76G G80A C95G	≤ -4.2
G42U C85A C99U A106G A138U A150G	≤ -4.2
G42U C93U C96G	≤ -4.2
G42U G58C A64C A91G G94A C95A A98G G126U	≤ -4.2
G42U G70U A89G U90G U104A A120C U144A	≤ -4.2
G42U G70U C96A U127C	≤ -4.2
G42U G74C C123U	≤ -4.2
G42U G83A	≤ -4.2
G42U G83A C85A	≤ -4.2
G42U G86U A97C	≤ -4.2
G42U G88U G92C C129A G140C	≤ -4.2
G42U U44A C54G G83U U139G U144A	≤ -4.2
G42U U44A C85A C96G A115C C129A	≤ -4.2
